Data from the supplement of paper PMC12217912.
The other results are listed elsewhere or left out. The full chains were built here from the parent and the listed change. Inactive controls read about 0.05.

B1: TEV protease; numbered along this chain (parent)
chain: MGESLFKGPRDYNPISSSICHLTNESDGHTTSLYGIGFGPFIITNKHLFRRNNGTLVVQSLHGVFKVKDTTTLQQHLVDGRDMIIIRMPKDFPPFPQKLKFREPQREERICLVTTNFQTKSMSSMVSDTSCTFPSGDGIFWKHWIQTKDGQCGSPLVSTRDGFIVGIHSASNFTNTNNYFTSVPKNFMELLTNQEAQQWVSGWRLNADSVLWGGHKVFMVKPEEPFQPVKEATQL

Variants of: B1
Test: raw area under fraction-flipped curve 0-4 h after induction (AUC4h, not background-subtracted), DNA-recorder readout of cleavage of the substrate (dimensionless); higher = more cleavage of the substrate by the protease variant
Conditions: temperature: 34 °C; time window: 0-4 h after rhamnose induction
Experimental: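 In vivo DNA recorder in E. coli TOP10(DE3) ΔrhaA at 34 °C. Each TEVp single-site mutant (parent TEVp 0) is paired with a single-site variant of the 7-mer TEVs (canonical ENLYFQ|S). The substrate sits between flexible linkers in a Bxb1-sfGFP-TEVs-SsrA fusion, so cleavage stabilises Bxb1 and speeds flipping of a recombination array, read by NGS. The value is the raw area under the fraction-flipped curve over 0-4 h after rhamnose induction (AUC4h), with ≥20 reads per time point. It is not background-subtracted; inactive controls average about 0.047.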
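Further: Bxb1 expression induced with 0.2% (w/v) L-rhamnose at OD600 near 0.5, cultures sampled hourly, flipped fraction per protease–substrate barcode pair counted by paired-end Illumina sequencing.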

Variant | area with substrate ENLAFQS | area with substrate ENLDFQS | area with substrate ENLEFQS | area with substrate ENLFFQS | area with substrate ENLGFQS | area with substrate ENLHFQS | area with substrate ENLIFQS | area with substrate ENLKFQS | area with substrate ENLNFQS | area with substrate ENLPFQS | area with substrate ENLQFQS | area with substrate ENLRFQS | area with substrate ENLSFQS | area with substrate ENLWFQS | area with substrate ENLCFQS | area with substrate ENLLFQS | area with substrate ENLTFQS | area with substrate ENLMFQS | area with substrate ENLVFQS
MGESLFKGPRDYNPISSSICHLTNESDGHTTSLYGIGFGPFIITNKHLFRRNNGTLVVQSLHGVFKVKDTTTLQQHLVDGRDMIIIRMPKDFPPFPQKLKFREPQREERICLVTTNFQTKSMSSMVSDTSCTFPSGDGIFWKHWIQTKDGQCGSPLVSTRDGFIVGIHSASNFTNTNNYFTSVPKNFMELLTNQEAQQWVSGWRLNADSVLWGGHKVFMVKPEEPFQPVFEATQL [K230F] | 0.06 | 0.0604 | 0.0539 | 0.0842 | 0.0638 | 0.0778 | 0.0836 | 0.0776 | 0.0756 | 0.0645 | 0.0701 | 0.0669 | 0.0656 | 0.0695 | – | – | – | – | –
MGESLFKGPRDYNPISSSICHLTNESDGHTTSLYGIGFGPFIITNKHLFRRNNGTLVVQSLHGVFKVKDTTTLQQHLVDGRDMIIIRMPKDFPPFPQKLKFREPQREERICLVTTNFQTKSMSSMVSDTSCTFPSGDGIFWKHWIQTKDGQCGSPLVSTRDGFIVGIHSASNFTNTNNYFTSVPKNFMELLTNQEAQQWVSGWRLNADSVLWGGHKVFMVKPEEPFQPVIEATQL [K230I] | 0.0533 | 0.0708 | 0.0663 | 0.0727 | 0.115 | 0.0693 | – | 0.0824 | 0.0775 | 0.0411 | 0.0728 | 0.0808 | – | – | 0.0897 | 0.082 | – | – | –
MGESLFKGPRDYNPISSSICHLTNESDGHTTSLYGIGFGPFIITNKHLFRRNNGTLVVQSLHGVFKVKDTTTLQQHLVDGRDMIIIRMPKDFPPFPQKLKFREPQREERICLVTTNFQTKSMSSMVSDTSCTFPSGDGIFWKHWIQTKDGQCGSPLVSTRDGFIVGIHSASNFTNTNNYFTSVPKNFMELLTNQEAQQWVSGWRLNADSVLWGGHKVFMVKPEEPFQPVPEATQL [K230P] | 0.0509 | 0.06 | 0.0614 | 0.0753 | 0.061 | – | 0.0872 | 0.0873 | 0.062 | – | 0.0712 | 0.0782 | 0.0328 | 0.0779 | – | – | 0.0748 | – | –
MGESLFKGPRDYNPISSSICHLTNESDGHTTSLYGIGFGPFIITNKHLFRRNNGTLVVQSLHGVFKVKDTTTLQQHLVDGRDMIIIRMPKDFPPFPQKLKFREPQREERICLVTTNFQTKSMSSMVSDTSCTFPSGDGIFWKHWIQTKDGQCGSPLVSTRDGFIVGIHSASNFTNTNNYFTSVPKNFMELLTNQEAQQWVSGWRLNADSVLWGGHKVFMVKPEEPFQPVKQATQL [E231Q] | 0.0553 | 0.0721 | – | 0.0824 | 0.0961 | 0.0583 | – | 0.0809 | 0.062 | 0.0614 | 0.103 | – | 0.0771 | 0.101 | – | – | – | 0.0662 | 0.0924
MGESLFKGPRDYNPISSSICHLTNESDGHTTSLYGIGFGPFIITNKHLFRRNNGTLVVQSLHGVFKVKDTTTLQQHLVDGRDMIIIRMPKDFPPFPQKLKFREPQREERICLVTTNFQTKSMSSMVSDTSCTFPSGDGIFWKHWIQTKDGQCGSPLVSTRDGFIVGIHSASNFTNTNNYFTSVPKNFMELLTNQEAQQWVSGWRLNADSVLWGGHKVFMVKPEEPFQPVKEARQL [T233R] | 0.0948 | 0.0576 | 0.0689 | 0.0868 | – | 0.0874 | 0.0861 | 0.0729 | 0.068 | 0.0698 | – | – | 0.0661 | – | 0.0686 | 0.0548 | 0.0742 | – | 0.0845
MGESLFKGPRDYNPISSSICHLTNESDGHTTSLYGIGFGPFIITNKHLFRRNNGTLVVQSLHGVFKVKDTTTLQQHLVDGRDMIIIRMPKDFPPFPQKLKFREPQREERICLVTTNFQTKSMSSMVSDTSCTFPSGDGIFWKHWIQTKDGQCGSPLVSTRDGFIVGIHSASNFTNTNNYFTSVPKNFMELLTNQEAQQWVSGWRLNADSVLWGGHKVFMVKPEEPFQPVKEATFL [Q234F] | 0.0581 | 0.0653 | – | 0.0834 | – | – | 0.0792 | 0.069 | 0.0682 | – | – | 0.0861 | – | – | – | 0.0647 | 0.0748 | 0.0581 | 0.0843
MGESLFKGPRDYNPISSSICHLTNESDGHTTSLYGIGFGPFIITNKHLFRRNNGTLVVQSLHGVFKVKDTTTLQQHLVDGRDMIIIRMPKDFPPFPQKLKFREPQREERICLVTTNFQTKSMSSMVSDTSCTFPSGDGIFWKHWIQTKDGQCGSPLVSTRDGFIVGIHSASNFTNTNNYFTSVPKNFMELLTNQEAQQWVSGWRLNADSVLWGGHKVFMVKPEEPFQPVKEATLL [Q234L] | 0.0631 | – | 0.0662 | 0.0844 | 0.0833 | 0.0896 | 0.0748 | 0.0724 | 0.064 | 0.0586 | 0.0706 | 0.0589 | 0.0515 | 0.0647 | 0.0912 | – | – | 0.0775 | –
MGESLMKGPRDYNPISSSICHLTNESDGHTTSLYGIGFGPFIITNKHLFRRNNGTLVVQSLHGVFKVKDTTTLQQHLVDGRDMIIIRMPKDFPPFPQKLKFREPQREERICLVTTNFQTKSMSSMVSDTSCTFPSGDGIFWKHWIQTKDGQCGSPLVSTRDGFIVGIHSASNFTNTNNYFTSVPKNFMELLTNQEAQQWVSGWRLNADSVLWGGHKVFMVKPEEPFQPVKEATQL [F6M] | – | 0.0696 | – | 0.0738 | – | 0.0648 | – | 0.0663 | 0.076 | 0.0621 | 0.0353 | 0.0519 | 0.0474 | 0.0933 | 0.0743 | – | – | – | 0.0907
MGESLFKQPRDYNPISSSICHLTNESDGHTTSLYGIGFGPFIITNKHLFRRNNGTLVVQSLHGVFKVKDTTTLQQHLVDGRDMIIIRMPKDFPPFPQKLKFREPQREERICLVTTNFQTKSMSSMVSDTSCTFPSGDGIFWKHWIQTKDGQCGSPLVSTRDGFIVGIHSASNFTNTNNYFTSVPKNFMELLTNQEAQQWVSGWRLNADSVLWGGHKVFMVKPEEPFQPVKEATQL [G8Q] | – | 0.0593 | – | 0.0832 | – | – | – | 0.0869 | – | – | – | – | – | – | 0.0648 | 0.0811 | – | – | –
